# Hit rate of the full screen: of about 52,000 compounds, about 4,300 (8.3%) were called active. Cut-off read from the data, not from the text of the source: active = survival mostly below about 52% (no sharp cut-off); inactive = mostly above about 56%. The list shows a part of the results.
# System: DeltatarO mutant
# Test: growth inhibition of S. aureus wild type versus tarO mutant, primary screen, teichoic acid synthesis inhibitors, RN4220, OD600 (AID 463173)
# Details: OD600, 18 h, stronger effect = lower value, screened at 18.75 µg/mL (by protocol)
row,SMILES,survival
1,CCOc1ccccc1NC(=O)c1c(NCc2sccc2C)sc2c1CCCCC2,inactive: 95%
2,CS(=O)(=O)N(CC(=O)N1CCCCC1)Cc1ccccc1,inactive: 88%
3,O=S(=O)(Nc1ccc(Cl)cc1)c1ccc(NS(=O)(=O)c2ccc3c(c2)OCCO3)cc1,active: 38%
4,Cc1ccc(CN(C(=O)COc2cccc([N+](=O)[O-])c2)c2ccccn2)o1,inactive: 62%
5,CCC(=O)N1CCc2cc(Br)cc(S(=O)(=O)N3CCCC(C(=O)Nc4ccc(OC)c(Cl)c4)C3)c21 (stereo unspecified),inactive: 92%
6,COc1cc2ccccc2cc1C(=O)Nc1cccc(-c2nc3cc(C)c(C)cc3o2)c1C,active: 45%
7,COc1ccc2oc(=O)c(C(=O)NCCc3c(C)[nH]c4c(Cl)cccc34)cc2c1,inactive: 62%
8,O=C(Nc1cccc(Cl)c1Cl)c1ccc2c(c1)N(Cc1cccc(Cl)c1)C(=O)c1ccccc1S2(=O)=O,inactive: 108%
9,Cc1nc2nc(NCc3cccc(Br)c3)[nH]n2c(=O)c1Cc1ccccc1,inactive: 54%
10,CCOc1ccc(OCC)c(NC(=O)Cn2ncc3c4ccccc4n(Cc4ccccc4)c3c2=O)c1,inactive: 94%
11,Cn1ccc2cc(S(=O)(=O)N3CCCN(C(=O)Nc4ccccc4Br)CC3)ccc21,inactive: 67%
12,CCC1CN(C(=O)N2CCC(C(=O)NCCN(C)C)CC2)c2ccccc2O1 (stereo unspecified),inactive: 82%
13,CCOc1ccccc1NC(=O)CC1SC(=N)N(c2ccccc2)C1=O (stereo unspecified),inactive: 85%
14,Cc1ccc(NC(=O)c2cnc(SCC(=O)N3CCOCC3)n(C)c2=O)cc1,inactive: 67%
15,CCNc1nc(NCC)nc(N(C)N)n1,inactive: 71%
16,COc1cc(-c2noc(-c3ccc(NCc4cccnc4)c([N+](=O)[O-])c3)n2)cc(OC)c1OC,inactive: 106%
17,COc1ccc(OC)c(CNC(=O)CCCn2ccc3cc(S(=O)(=O)N4CCCC4)ccc32)c1,inactive: 89%
18,O=C(CSc1nccn1-c1ccccc1)Nc1nc2ccccc2s1,inactive: 99%
19,CCOc1ccc(CCNC(=O)CCCn2nc(C)c3sc4ccccc4c3c2=O)cc1OCC,inactive: 96%
20,CCOc1ccc(CNC(=O)CCC(=O)N2CC(C)Sc3ccccc32)cc1 (stereo unspecified),inactive: 56%
21,COC(=O)CC1c2cc(OC)c(OC)cc2CCN1C(=O)Nc1ccc(C)cc1Cl (stereo unspecified),inactive: 82%
22,COc1ccccc1Nc1nn2c(=O)c3ccc(C(=O)NCCCOC(C)C)cc3nc2s1,inactive: 71%
23,C=CCNC(=O)Cn1nc(-c2ccccc2F)ccc1=O,inactive: 101%

row,SMILES,survival
1,N#C/C(=C/c1cn(Cc2ccc(F)cc2)c2ccccc12)C(=O)Nc1cccc(Cl)c1,inactive: 92%
2,COc1cc(C(=O)Oc2c(Sc3ccc(C)cc3)c(C)nn2-c2ccccc2)cc(OC)c1OC,inactive: 109%
3,Nc1ccc(C(=O)N2CCCC2)cc1,inactive: 87%
4,CCNC(=O)c1cnc2sc(N3CCCCCC3)nn2c1=O,inactive: 81%
5,O=C1c2ccccc2C(=O)N1CC(O)COC1CCCCC1 (stereo unspecified),inactive: 81%
6,COC(=O)c1c(C)sc(-c2c(-c3ccc4c(c3)OCCO4)[nH]c3c2c(=O)n(C)c(=O)n3C)c1O,active: 43%
7,COc1ccc(NC(=O)/C(C#N)=C/C=C/c2ccco2)cc1,inactive: 60%
8,COc1cccc(NC(=O)CN(C)S(=O)(=O)c2ccc3nc(C)sc3c2)c1,inactive: 84%
9,COc1ccc(C)cc1N(C)C(=O)c1c(C)oc2ncnc(N3CCOCC3)c12,inactive: 88%
10,CC1CC2(NC(=O)NC2=O)C(C)CN1C (stereo unspecified),inactive: 82%
11,CN(c1ccc(Cl)cc1)S(=O)(=O)c1nnc(NC(=O)C2CCCCC2)s1,inactive: 106%
12,O=C1Cc2ccccc2CC(=O)N1,inactive: 100%
13,CC(=O)NC(NC(C)=O)C(=O)c1ccccc1,inactive: 95%
14,Cn1c(=O)c2cc(C(=O)N3CCN(c4ccc(Cl)cc4)CC3)sc2c2ccccc21,active: 56%
15,O=C(Cn1cc(/C=C2\SC(=S)NC2=O)c2ccccc21)NCc1ccco1,inactive: 88%
16,Cc1oc(-c2ccc(C(=O)Nc3cc(F)ccc3F)cc2)nc1COc1ccccc1,inactive: 97%
17,O=C(NCCc1ccc(Cl)cc1)c1ccc(CS(=O)Cc2cccc(Cl)c2)o1 (stereo unspecified),active: 38%
18,CCC(C)NC(=O)c1cnn(-c2ccc(Cl)cc2)c1C1CCN(C(=O)OC(C)(C)C)CC1 (stereo unspecified),inactive: 85%
19,Cc1cccc(Nc2cc(=O)[nH]c(=O)[nH]2)c1,inactive: 94%
20,COC(=O)c1n[nH]n(-c2ccccc2)c1=O,inactive: 92%
21,Nc1nnc(SCC(=O)Nc2ccccc2C(F)(F)F)s1,inactive: 146%
22,Cc1cccc(NC(=O)C2CCCN(S(=O)(=O)c3cnc[nH]3)C2)c1C (stereo unspecified),inactive: 87%
23,CN(C1CCCCC1)S(=O)(=O)c1ccc2c(c1)c(=O)c(C(=O)NCCc1ccccc1)cn2C,inactive: 79%

row,SMILES,survival
1,Cc1ccn2c(Nc3ccc4c(c3)OCCO4)c(-c3ccc(Cl)s3)nc2c1,inactive: 102%
2,Cc1ccc2[nH]c(=O)c(CNC3CCCC3)cc2c1,inactive: 75%
3,CN(C)C(=O)c1c(NC(=O)c2ccccc2F)sc2c1CCCC2,inactive: 76%
4,COc1ccc(Cn2c(C(=O)O)c(CNCCc3cc(OC)ccc3OC)c3ccc(C)cc32)cc1,inactive: 85%
5,COc1ccc(C2=NC(C)(C)N(CC(=O)Nc3cccc(C)c3)C2=O)cc1,inactive: 76%
6,O=C(COc1ccc2ccccc2c1)NC1CC(=O)N(c2cccc(F)c2)C1 (stereo unspecified),inactive: 112%
7,CC1=C(C(=O)Nc2ccc(Cl)cc2)C(CC(C)C)n2nc(SCc3ccccc3C)nc2N1 (stereo unspecified),inactive: 127%
8,COc1ccccc1NC(=O)CSc1nc2ccccc2cc1C#N,inactive: 104%
9,Cc1ccc(S(=O)(=O)Nc2nc3n(n2)C(c2ccc(F)cc2)C=C(c2ccccc2)N3)cc1 (stereo unspecified),active: 29%
10,COc1cc(C2Nc3c(C)cc(C)cc3-c3cc(C)nn32)cc(OC)c1O (stereo unspecified),inactive: 131%
11,O=C(c1cccn1-c1nnc(N2CCCC2)s1)N1CCN(c2ccc(Cl)cc2)CC1,inactive: 63%
12,Cn1nnc(C(O)CN2CCOCC2)n1 (stereo unspecified),inactive: 75%
13,Cc1ccc2c(c1)C(c1ccccc1)N(C(=O)Cc1ccc(F)cc1)CC(=O)N2 (stereo unspecified),inactive: 55%
14,Cn1c(=O)[nH]c2cc(-c3noc(-c4ccc(C#N)cc4)n3)ccc21,inactive: 96%
15,Cc1cc(C)n(-c2nnc(Nc3ccc(C)c(Cl)c3)c3ccccc23)n1,inactive: 122%
16,CCCS(=O)(=O)NCCc1sc2nc(-c3ccc(F)cc3)nn2c1C,inactive: 76%
17,O=C(NCC(c1ccco1)S(=O)(=O)c1cccs1)c1ccccc1F (stereo unspecified),inactive: 85%
18,COc1cccc(CNc2cc(C)nc3nc(-c4ccc(C)cc4)nn23)c1,inactive: 73%
19,COc1ccc(C2c3c(n(C)c4ccccc34)C(=O)N2CC(=O)Nc2cccc(F)c2)cc1 (stereo unspecified),inactive: 77%
20,CCCc1cc(=O)[nH]c2nnc(SCC)n12,inactive: 95%
21,Cc1ccc(N2CC(C)Cn3c2nc2c3c(=O)n(Cc3cccc(Cl)c3)c(=O)n2C)cc1 (stereo unspecified),inactive: 46%
22,COc1ccc(NC(=O)c2oc3ccc(S(=O)(=O)N4CCOCC4)cc3c2C)cc1,inactive: 116%
23,COc1cc(C2C(=O)N(C3CCCCCC3)CC(=O)N2CCc2ccccc2)ccc1OC(C)C (stereo unspecified),inactive: 85%

row,SMILES,survival
1,Cc1ccc(C)c(-n2c(N)c(C#N)c3nc4ccccc4nc32)c1,inactive: 153%
2,O=C(NC1(C(F)(F)F)NC(=O)N(CCc2ccccc2)C1=O)c1ccc(Cl)cc1 (stereo unspecified),inactive: 58%
3,Oc1c(C(c2ccccc2)N2CCC(O)CC2)sc2nc(-c3ccco3)nn12 (stereo unspecified),inactive: 71%
4,Cn1c(=O)c2c(nc(Sc3nc4ccccc4n3CC(=O)N3CCCCC3)n2C)n(C)c1=O,inactive: 114%
5,Cc1ccc(-n2nc3c(=O)n(C(C)C(=O)NCc4ccco4)nc(C)c3c2C)cc1 (stereo unspecified),active: 47%
6,Cc1ccc(C)c(NC(=O)c2ccc(CN3CC(=O)N4CCCCC4C3=O)cc2)c1 (stereo unspecified),inactive: 54%
7,CC(=O)Nc1ccc(NC(=O)c2ccc3c(c2)N(Cc2cccc(Cl)c2)C(=O)c2ccccc2S3(=O)=O)cc1,inactive: 104%
8,CCOC(=O)C(C)Sc1ccc2nnc(CCNS(=O)(=O)c3ccccc3)n2n1 (stereo unspecified),inactive: 79%
9,COc1ccc(Nc2c3c(nc4ccc(NC(=O)c5ccc(F)cc5)cc24)CCCC3)cc1OC,inactive: 106%
10,CC1N=C2c3ccccc3N=C(SCC(=O)NCCc3ccccc3)N2C1=O (stereo unspecified),active: 52%
11,CN(Cc1ccccc1)C(=O)c1nc(-c2ccc(Cl)cc2)n2c1CCCCC2,inactive: 75%
12,CCOc1ccc(CCNC(=O)c2cnc3sc(N4CCCC4)nn3c2=O)cc1,inactive: 90%
13,CC1CC(C)CN(C(=O)CNCc2ccco2)C1 (stereo unspecified),inactive: 83%
14,CCCCOc1cccc(C(=O)N(Cc2ccc(C)o2)c2ccccn2)c1,inactive: 65%
15,CN(C)S(=O)(=O)c1ccc(S(=O)(=O)N2CCC(O)CC2)cc1,inactive: 98%
16,COc1ccc(S(=O)(=O)Nc2cc(S(=O)(=O)c3ccccc3)c(O)c(C)c2C)cc1,inactive: 78%
17,Cc1ccc(C(C)C)c(OC(C)C(=O)NCC2(N(C)C)CCCCC2)c1 (stereo unspecified),inactive: 106%
18,Cc1ccccc1CN1C(=O)c2ccccc2S(=O)(=O)c2ccc(C(=O)OCC3CCCO3)cc21 (stereo unspecified),inactive: 71%
19,CC(NC(=O)CN1C(=O)c2cccnc2Oc2ccc(Cl)cc21)c1ccccc1 (stereo unspecified),inactive: 71%
20,Cc1cc(OC(C)C(=O)Nc2sc3c(c2C(N)=O)CCCC3)ccc1Cl (stereo unspecified),inactive: 59%
21,CN(C)S(=O)(=O)c1ccc(S(=O)(=O)N(C)CC2COc3ccccc3O2)cc1 (stereo unspecified),inactive: 80%
22,COc1ccc(-c2cc3ccc(O)c(CN4CCC(C)CC4)c3oc2=O)cc1OC,active: 52%

# Source: PubChem BioAssay AID463173 (ICCB-Longwood Screening Facility, Harvard Medical School, 2010)
